The campaign covered roughly 390,000 compounds. About 4,700 (1.2%) were called active. This list was built around the results that the source calls inconclusive (neither active nor inactive); the mix of calls is not that of the screen. Calls come from the whole dose curve; as a rule, active = well fitted inhibition curve with a large enough effect; inconclusive = small, poorly fitted or top-dose-only effect, or another doubt; inactive = no such curve, though single readings can be large or run the other way. Where the call is inconclusive, the potency comes from a doubtful curve fit.
Each molecule was assayed against DNA polymerase eta (Homo sapiens) (UniProt Q9Y253) (assay: qHTS for Inhibitors of Polymerase Eta). Details: recombinant Pol eta, fluorescent DNA replication assay; series mostly up to 114 µM; activity change, negative = inhibition: at the top concentration.
Summary of the method: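 Pol eta (10 nM) was preincubated with compounds for 15 min at room temperature, after which fluorescent replication substrate (50 nM final) was added to start the reaction. Fluorescence was read kinetically at 0 and 10 min.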
% is set by controls: 0 for no effect and ±100 for the full control effect; potency is the fitted concentration of half-maximal effect; tags give direction and shape of the fitted curve.

Chain of UniProt Q9Y253 (Q9Y253 whole entry, looked up): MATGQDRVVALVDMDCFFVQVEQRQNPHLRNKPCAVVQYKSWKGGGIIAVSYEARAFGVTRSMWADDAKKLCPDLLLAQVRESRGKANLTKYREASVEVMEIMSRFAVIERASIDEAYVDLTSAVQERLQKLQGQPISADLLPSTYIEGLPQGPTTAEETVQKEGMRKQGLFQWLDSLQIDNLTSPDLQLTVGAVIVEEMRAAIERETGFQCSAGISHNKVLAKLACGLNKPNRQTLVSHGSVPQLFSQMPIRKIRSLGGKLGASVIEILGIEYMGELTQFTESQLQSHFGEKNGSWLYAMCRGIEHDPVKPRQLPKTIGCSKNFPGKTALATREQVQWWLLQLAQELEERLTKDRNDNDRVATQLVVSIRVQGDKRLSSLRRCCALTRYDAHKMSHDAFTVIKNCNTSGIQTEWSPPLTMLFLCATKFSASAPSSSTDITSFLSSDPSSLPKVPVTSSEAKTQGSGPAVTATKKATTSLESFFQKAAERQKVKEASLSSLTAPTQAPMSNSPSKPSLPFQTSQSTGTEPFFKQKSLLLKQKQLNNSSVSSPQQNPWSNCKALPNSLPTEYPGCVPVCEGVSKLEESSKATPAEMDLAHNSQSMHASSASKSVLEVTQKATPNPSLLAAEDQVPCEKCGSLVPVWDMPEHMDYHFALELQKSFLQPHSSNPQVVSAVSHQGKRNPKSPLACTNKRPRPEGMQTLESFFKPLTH

Structure (SMILES)	Potency	activity change, negative = inhibition
O=C(Nc1nnc(S(=O)(=O)N2CCCc3ccccc32)s1)c1ccccc1	inconclusive: 89.1 µM [inhibitor, single point]	–
CCOC(=O)c1sc(NC(=O)Nc2ccccc2)cc1C	inconclusive: 35.5 µM [inhibitor, partial curve]	–
COc1ccccc1N1CCN(S(=O)(=O)c2ccc3nc(-c4ccccc4)[nH]c3c2)CC1	inconclusive: 100 µM [inhibitor, partial curve, poor fit]	–
CCc1ccc(-n2cccc2/C=C2/C(=N)N3C(=NC2=O)SN=C3S(C)(=O)=O)cc1	active: 20 µM	–
Cc1ccccc1N1CC(C(=O)Nc2nnc(SCc3ccccn3)s2)CC1=O (configuration not stated)	active: 50.1 µM	–
CC(C)Sc1nc2sc3c(c2c2nnc(SCC(=O)NCc4ccco4)n12)CCCC3	active: 4.47 µM	–
C=CCNCCCOc1ccc(Cl)cc1Br	inconclusive: 3.55 µM [inhibitor, partial curve, poor fit]	–
COc1ccc2nc(C)cc(SCC(=O)N/N=C/c3ccccc3)c2c1	inconclusive: 39.8 µM [inhibitor, single point]	–
COc1cc(/C=C/c2[nH]c(=O)[nH]c(=O)c2[N+](=O)[O-])cc([N+](=O)[O-])c1O	active: 22.4 µM	–
COc1ccc(CNc2ccc(N3CCOCC3)cc2)cc1	inconclusive: 89.1 µM [inhibitor, partial curve, poor fit]	–
CCOc1ccc(NC(=O)c2cc3c(=O)n(Cc4cccs4)ccc3nc2C)cc1	–	inactive: 1.5%
C[C@H](CO)N1C[C@H](C)[C@H](CN(C)C(=O)c2ccccc2)OCc2ccccc2-c2c(n(C)c3ccccc23)C1=O	inconclusive: 79.4 µM [inhibitor, partial curve, poor fit]	–
Cc1ccc(-c2noc(CN(C(=O)COc3cc(C)cc(C)c3C)C(C)C)n2)cc1	–	inactive: -18.6%
N#C/C(=C\c1ccc(Sc2ccccc2)o1)c1nc2ccccc2[nH]1	inconclusive: 12.6 µM [inhibitor, partial curve, poor fit]	–
N#Cc1cc(NCC2CCCO2)c([N+](=O)[O-])cc1C#N (configuration not stated)	inconclusive: 12.6 µM [inhibitor, partial curve]	–
C[C@@H]1CN([C@@H](C)CO)C(=O)CCCn2nncc2CO[C@@H]1CN(C)C(=O)Nc1ccc(N2CCCCC2)cc1	–	inactive: -7.13%
COc1ccc(C(=O)NC2CCCCC2)cc1S(=O)(=O)N1CCCC1	–	inactive: 8.48%
CCOC(=O)c1sc(N2N=C(C)C(N=Nc3cccc(C)c3)C2=O)nc1C (configuration not stated)	active: 39.8 µM	–
CCN(CC)c1ccc(/C=C/C(=O)c2ccc(Br)cc2)cc1	inconclusive: 44.7 µM [inhibitor, partial curve, poor fit]	–
CCOc1ccc(-c2cc(NC(=O)c3c(F)cccc3F)c(C(=O)O)s2)cc1	inconclusive: 20 µM [inhibitor, full curve, poor fit]	–
O=C(Nc1ccccc1C(=O)N1CCOCC1)c1ccco1	inconclusive: 39.8 µM [inhibitor, single point]	–
Cc1ccc(Sc2ccc(S(=O)(=O)Nc3ccc(CC(=O)O)cc3)cc2)cc1C	inconclusive: 89.1 µM [inhibitor, partial curve]	–
CC(C)(C)C(=O)Nc1cc(C(F)(F)F)ccc1N1CCOCC1	inconclusive: 3.16 µM [inhibitor, partial curve, poor fit]	–

Structure (SMILES)	Potency	activity change, negative = inhibition
O=C(O)CCC(=O)Nc1ccc2c(c1)Cc1cc(NC(=O)CCC(=O)O)ccc1-2	active: 25.1 µM	–
O=C(O)C1Nc2c(Cl)cc(Cl)c(Cl)c2C2C=CCC12 (configuration not stated)	active: 14.1 µM	–
COc1ccc2nc(/C(C#N)=C\c3ccc(Oc4ccc([N+](=O)[O-])cn4)cc3)[nH]c2c1	inconclusive: 22.4 µM [inhibitor, partial curve, poor fit]	–
Cn1c(N)c(C(=O)c2ccc(Cl)c(S(=O)(=O)N3CCCCCC3)c2)c(=O)n(C)c1=O	inconclusive: 100 µM [inhibitor, partial curve, poor fit]	–
CC1Cc2ccccc2N1Cc1cc(=O)c(OCC(=O)Nc2ccccc2)co1 (configuration not stated)	inconclusive: 14.1 µM [inhibitor, single point]	–
CC(=O)N(/N=C1\Sc2ccccc2C1=O)c1ccccc1	inconclusive: 5.01 µM [inhibitor, full curve, poor fit]	–
Cc1ccc(O)c(NC(=O)c2ccccc2-c2ccccc2C(=O)O)c1	–	inactive: -7.14%
O=C(COc1ccc(/C=N/NC(=O)c2ccccc2O)cc1)Nc1ccccc1	inconclusive: 28.2 µM [inhibitor, full curve]	–
OCc1cn(-c2ccccc2)nc1-c1ccc(Br)cc1	inconclusive: 0.178 µM [inhibitor, partial curve, poor fit]	–
Cc1nnc(NC(=O)c2ccc3c(c2)NC(=O)CS3)s1	–	inactive: -0.229%
Cc1cc(N)n2ncc(-c3cccc(Br)c3)c2n1	–	inactive: -16%
Cc1cc(C)c2c(n1)sc1c(O)cc(=O)[nH]c12	active: 79.4 µM	–
Cc1cc(C)nc(NN2C(=O)/C(=C/c3ccc(O)cc3)SC2=S)n1	inconclusive: 56.2 µM [inhibitor, partial curve, poor fit]	–
CCN(CC)S(=O)(=O)c1cc(C(=O)Nc2cc(C)[nH]n2)ccc1Cl	–	inactive: -7.35%
COC(=O)c1sc(-c2ccc(Cl)cc2)cc1NC(=O)c1ccccc1C(=O)O	inconclusive: 70.8 µM [inhibitor, single point]	–
CCC(=O)OC1(C)C(=O)C=C2C=C(C3CC3)OC=C2C1=O (configuration not stated)	inconclusive: 35.5 µM [inhibitor, partial curve, poor fit]	–
COc1ccc(OCC(O)CN2CCN(c3ccc(OC)cc3)CC2)cc1 (configuration not stated)	–	inactive: -12.5%
Cc1cccc(NCc2ccccc2)c1	inconclusive: 89.1 µM [inhibitor, partial curve, poor fit]	–
O=C(N/N=C/c1c(O)ccc2ccccc12)c1ccc[n+](CCO)c1	–	inactive: -15.4%
COc1cc(/C=C2\C(=N)N3N=C(S(C)(=O)=O)SC3=NC2=O)cc(OC)c1OCCOc1ccc(C)cc1	–	inactive: -10.8%
Cc1ccc(C)c(OCCn2ccnc2)c1	active: 31.6 µM	–
Cc1ccc2cc3c(N)nn(C(=O)c4cccc(F)c4)c3nc2c1	–	inactive: -17%
COc1cc(NC(=O)c2cc(C)nc3c2c(C)nn3-c2ccccc2Cl)cc(OC)c1	inconclusive: 89.1 µM [inhibitor, partial curve, poor fit]	–

Structure (SMILES)	Potency	activity change, negative = inhibition
O=C(C1=C(O)C(=O)N(c2nccs2)C1c1ccccc1)c1cc2ccccc2o1 (configuration not stated)	inconclusive: 20 µM [inhibitor, full curve]	–
CC(=O)NCc1ccc(C(=O)CSc2nnc(-c3ccncc3)n2Cc2ccccc2)o1	active: 20 µM	–
COc1cc(/C=C(\C#N)C(=O)Nc2cccc(C(=O)O)c2)ccc1OCc1ccc(F)cc1	active: 50.1 µM	–
CCC(=O)NC(=S)Nc1ccc(-c2nc3ccccc3s2)cc1	–	inactive: 5.43%
CSc1nnc2c3ccccc3n(Cc3ccccc3)c2n1	inconclusive: 22.4 µM [inhibitor, single point]	–
CCOC(=O)c1c(SCC(=O)Nc2cc(Cl)cc(Cl)c2)nc(=O)[nH]c1C	–	inactive: -9.93%
O=[N+]([O-])c1ccc(Cl)c(S(=O)(=O)Nc2cccc(-c3ccc(N4CCCC4)nn3)c2)c1	inconclusive: 15.8 µM [inhibitor, full curve]	–
CC(C)(CNC(=O)c1ccc(Cl)c(S(=O)(=O)N2CCc3ccccc3C2)c1)N1CCOCC1	–	inactive: -5.08%
COc1ccc(-c2nc(NC(=O)CSc3nnc4ccccn34)ns2)cc1	inconclusive: 28.2 µM [inhibitor, partial curve, poor fit]	–
N/C(=N/S(=O)(=O)c1ccccc1)c1cccc([N+](=O)[O-])c1	inconclusive: 89.1 µM [inhibitor, partial curve, poor fit]	–
CCc1nn2c(=O)cc(COC(=O)c3ccccc3NC(=O)C3CCCCC3)nc2s1	–	inactive: -2.51%
Cc1ccc(Nc2c(-c3ccccn3)nc3cccc(C)n23)cc1	inconclusive: 89.1 µM [inhibitor, partial curve, poor fit]	–
C#CCOCCOCCOCCNc1nc(N2CCN(C(=O)CCCCCCCCCCNC(=O)[C@H](CCCCN)n3cc(CCO)nn3)CC2)nc(N2CCN(C(=O)CCCCCCCCCCNC(=O)[C@@H]([C@H](C)O)n3cc(C)nn3)CC2)n1	inconclusive: 100 µM [inhibitor, single point]	–
O=C(Nc1ccccc1N1CCOCC1)C1Cc2ccccc2CN1C(=O)c1ccco1 (configuration not stated)	–	inactive: 6.8%
Cc1ccn2c(=O)nc(SCC(=O)N3CCCCC3)nc2c1	inconclusive: 11.2 µM [inhibitor, partial curve]	–
CC1Sc2ccc(S(=O)(=O)N3CCC(C(=O)Nc4ccc(Cl)cc4)CC3)cc2NC1=O (configuration not stated)	inconclusive: 79.4 µM [inhibitor, partial curve]	–
Cc1nc(C)c(-c2csc(Nc3ccc(C(=O)O)c(O)c3)n2)s1	inconclusive: 20 µM [inhibitor, partial curve, poor fit]	–
COc1ccc(C2CC(=O)Oc3c(C(CCN4CCCC(C)C4)c4ccc(N(C)C)cc4)c(OC)cc(OC)c32)cc1 (configuration not stated)	inconclusive: 79.4 µM [inhibitor, partial curve, poor fit]	–
COC(=O)c1sc(NC(=O)C2CCCCC2C(=O)O)c(C(=O)OC)c1C (configuration not stated)	inconclusive: 22.4 µM [inhibitor, partial curve, poor fit]	–
CC(=O)c1cccc(-n2c(=O)c3c4c(sc3n(Cc3ccccc3Cl)c2=O)CN(C(C)=O)CC4)c1	–	inactive: 4.82%
CCOc1ccccc1/C=N/n1c(COc2ccccc2)n[nH]c1=S	inconclusive: 35.5 µM [inhibitor, partial curve, poor fit]	–
